Data published in the supplement of paper PMC8728848.
The list shows a part of the results.

How the values were obtained:
Experiment in all cases: glycan array binding signal (z-score within array); higher = stronger binding
Details in all cases: glycan notation: IUPAC condensed, linker removed
[1] = molecular target: Man(a1-2)Man(a1-3)[Man(a1-2)Man(a1-6)]Man(a1-6)[Man(a1-2)Man(a1-2)Man(a1-3)]Man
Method in brief: (§1)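 From the Consortium for Functional Glycomics database, 3228 arrays were curated, keeping only those whose protein sequence was available. Binding is given as a within-array Z-score averaged across arrays sharing a protein sequence and across linkers. Negative Z-scores can be read as non-binding.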

[2] = molecular target: Man(a1-2)Man(a1-3)[Man(a1-2)Man(a1-6)]Man(a1-6)[Man(a1-2)Man(a1-2)Man(a1-3)]Man(b1-4)GlcNAc(b1-4)GlcNAc
Method in brief: as §1

[3] = molecular target: Man(a1-2)Man(a1-3)[Man(a1-6)]Man(a1-6)[Man(a1-2)Man(a1-3)]Man(b1-4)GlcNAc(b1-4)GlcNAc
Method in brief: as §1

[4] = molecular target: Man(a1-2)Man(a1-6)[Man(a1-3)]Man(a1-6)[Man(a1-2)Man(a1-2)Man(a1-3)]Man
Method in brief: as §1

[5] = molecular target: Man(a1-2)Man(a1-6)[Man(a1-3)]Man(a1-6)[Man(a1-2)Man(a1-2)Man(a1-3)]Man(b1-4)GlcNAc(b1-4)GlcNAc
Method in brief: as §1

[6] = molecular target: Man(a1-3)[Man(a1-6)]Man
Method in brief: as §1

[7] = molecular target: Man(a1-3)[Man(a1-6)]Man(a1-6)[Man(a1-2)Man(a1-3)]Man(b1-4)GlcNAc(b1-4)GlcNAc
Method in brief: as §1

[8] = molecular target: Man(a1-3)[Man(a1-6)]Man(a1-6)[Man(a1-3)]Man
Method in brief: as §1

[9] = molecular target: Man(a1-3)[Man(a1-6)]Man(a1-6)[Man(a1-3)]Man(b1-4)GlcNAc(b1-4)GlcNAc
Method in brief: as §1

[10] = molecular target: Man(a1-3)[Man(a1-6)]Man(b1-4)GlcNAc(b1-4)GlcNAc
Method in brief: as §1

[11] = molecular target: Man(a1-3)[Man(a1-6)]Man(b1-4)GlcNAc(b1-4)[Fuc(a1-6)]GlcNAc
Method in brief: as §1

[12] = molecular target: Man(a1-6)Man
Method in brief: as §1

[13] = molecular target: Man(b1-4)GlcNAc
Method in brief: as §1

[14] = molecular target: MurNAc(b1-4)GlcNAc
Method in brief: as §1

[15] = molecular target: Neu5Ac(a2-3)Gal
Method in brief: as §1

[16] = molecular target: Neu5Ac(a2-3)Gal(b1-3)GalNAc
Method in brief: as §1

[17] = molecular target: Neu5Ac(a2-3)Gal(b1-3)GalNAc(b1-3)Gal(a1-4)Gal(b1-4)Glc
Method in brief: as §1

[18] = molecular target: Neu5Ac(a2-3)Gal(b1-3)GalNAc(b1-4)[Neu5Ac(a2-3)]Gal(b1-4)Glc
Method in brief: as §1

[19] = molecular target: Neu5Ac(a2-3)Gal(b1-3)GalNAc(b1-4)[Neu5Ac(a2-8)Neu5Ac(a2-3)]Gal(b1-4)Glc
Method in brief: as §1

[20] = molecular target: Neu5Ac(a2-3)Gal(b1-3)GalNAc6S
Method in brief: as §1

[21] = molecular target: Neu5Ac(a2-3)Gal(b1-3)GlcNAc
Method in brief: as §1

[22] = molecular target: Neu5Ac(a2-3)Gal(b1-3)GlcNAc(b1-2)Man
Method in brief: as §1

B1: PX9961X-pdi-531-24-531 (Parabacteroides distasonis) (protein)
chain: DLTEEIHSSVIAENYYNNAGEVMAAMMRPWGHFCGTMQVAQSPWSCNELSSDCAAWPQKGRHGYDNGDWIRLHRHQWIPTDGQVVDAWKKLFEGIGYANNFLTDTENIDFEALQVPMSKAQAQAEMRVYRAYCYWYVMDMFGTAPICEKIGEINPSSKSRAELFAWIEKELNESIPSLSESKTETYGRVSKWGAYALLARLYLNAEIYTGQARWDDCIAACDELAKGGFALDKKWNDTFRADNDKRSTEIIWSIVYDEVYAKGMGWYQRWLHYAHQTGWDLQSGPWNGLVTQPTFYDSFADNDLRKIEGFLIGKQYPRKVDENGNYYYDTTAEPLKGSEEYNGQDLVFVNYIKSMTEGEENSGARSIKYEIQPGTTGDMNNDWVMFRYSEVIYNKAEALMRKNGGKATQEVVDMINSVRQRSFKAEDWEKAKYTTATLTMDEFLAEKGREFAFEGIRRTDLVRFNKFVTTSWWDKTASNEPKRNIFPIPQRQLDANANLSPNEANSLF
[1]
  glycan array binding signal (z-score): -0.287
[2]
  glycan array binding signal (z-score): -0.429
[3]
  glycan array binding signal (z-score): -0.748
[4]
  glycan array binding signal (z-score): -0.351
[5]
  glycan array binding signal (z-score): 0.105
[6]
  glycan array binding signal (z-score): 0.478
[7]
  glycan array binding signal (z-score): -0.453
[8]
  glycan array binding signal (z-score): 0.49
[9]
  glycan array binding signal (z-score): -0.382
[10]
  glycan array binding signal (z-score): -0.64
[11]
  glycan array binding signal (z-score): -0.897
[12]
  glycan array binding signal (z-score): 0.002
[13]
  glycan array binding signal (z-score): 0.081
[14]
  glycan array binding signal (z-score): -0.562
[15]
  glycan array binding signal (z-score): -0.889
[16]
  glycan array binding signal (z-score): -0.127
[17]
  glycan array binding signal (z-score): -0.098
[18]
  glycan array binding signal (z-score): -0.471
[19]
  glycan array binding signal (z-score): 0.292
[20]
  glycan array binding signal (z-score): -0.9
[21]
  glycan array binding signal (z-score): -0.482
[22]
  glycan array binding signal (z-score): -0.3
